In the supplement of paper PMC8728848:
The other results are listed elsewhere or left out.

What was measured:
Experiment in all cases: glycan array binding signal (z-score within array); higher = stronger binding
Conditions in all cases: glycan notation: IUPAC condensed, linker removed; mutation: E227G
[1] = target: GlcNAc(b1-3)Gal(b1-4)GlcNAc(b1-3)Gal(b1-4)GlcNAc(b1-3)Gal(b1-4)GlcNAc(b1-3)Gal(b1-4)GlcNAc(b1-2)[GlcNAc(b1-3)Gal(b1-4)GlcNAc(b1-3)Gal(b1-4)GlcNAc(b1-3)Gal(b1-4)GlcNAc(b1-3)Gal(b1-4)GlcNAc(b1-6)]Man(a1-6)[GlcNAc(b1-3)Gal(b1-4)GlcNAc(b1-3)Gal(b1-4)GlcNAc(b1-3)Gal(b1-4)GlcNAc(b1-3)Gal(b1-4)GlcNAc(b1-2)Man(a1-3)]Man(b1-4)GlcNAc(b1-4)[Fuc(a1-6)]GlcNAc
Method in brief: (§1)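 Columns mapping to the same glycan were averaged after glycan names were converted to IUPAC-condensed notation. The data come from 3228 arrays in the Consortium for Functional Glycomics database, limited to those with an available protein sequence. Binding is reported as a within-array Z-score averaged across arrays of one protein sequence and across linkers.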

[2] = target: GlcNAc(b1-3)Gal(b1-4)GlcNAc(b1-3)Gal(b1-4)GlcNAc(b1-3)GalNAc
Method in brief: as §1

[3] = target: GlcNAc(b1-3)Gal(b1-4)GlcNAc(b1-3)GalNAc
Method in brief: as §1

[4] = target: GlcNAc(b1-3)Gal(b1-4)GlcNAc(b1-3)[GlcNAc(b1-3)Gal(b1-4)GlcNAc(b1-3)]GalNAc
Method in brief: as §1

[5] = target: GlcNAc(b1-3)Gal(b1-4)GlcNAc(b1-6)[Gal(b1-3)]GalNAc
Method in brief: as §1

[6] = target: GlcNAc(b1-3)Gal(b1-4)GlcNAc(b1-6)[GlcNAc(b1-3)Gal(b1-3)]GalNAc
Method in brief: as §1

[7] = target: GlcNAc(b1-3)Gal(b1-4)GlcNAc(b1-6)[GlcNAc(b1-3)]Gal(b1-4)GlcNAc
Method in brief: as §1

[8] = target: GlcNAc(b1-3)GalNAc
Method in brief: as §1

[9] = target: GlcNAc(b1-3)Man
Method in brief: as §1

[10] = target: GlcNAc(b1-3)[GlcNAc(b1-4)][GlcNAc(b1-6)]GlcNAc
Method in brief: as §1

[11] = target: GlcNAc(b1-3)[GlcNAc(b1-6)]Gal(b1-4)GlcNAc
Method in brief: as §1

[12] = target: GlcNAc(b1-3)[GlcNAc(b1-6)]GalNAc
Method in brief: as §1

[13] = target: GlcNAc(b1-4)Gal(b1-4)GlcNAc
Method in brief: as §1

[14] = target: GlcNAc(b1-4)GlcNAc
Method in brief: as §1

[15] = target: GlcNAc(b1-4)GlcNAc(b1-4)GlcNAc
Method in brief: as §1

[16] = target: GlcNAc(b1-4)GlcNAc(b1-4)GlcNAc(b1-4)GlcNAc(b1-4)GlcNAc
Method in brief: as §1

[17] = target: GlcNAc(b1-4)GlcNAc(b1-4)GlcNAc(b1-4)GlcNAc(b1-4)GlcNAc(b1-4)GlcNAc
Method in brief: as §1

[18] = target: GlcNAc(b1-4)[GlcNAc(b1-6)]GalNAc
Method in brief: as §1

[19] = target: GlcNAc(b1-6)Gal(b1-4)GlcNAc
Method in brief: as §1

[20] = target: GlcNAc(b1-6)GalNAc
Method in brief: as §1

[21] = target: GlcNAc6S(b1-3)Gal(b1-4)GlcNAc
Method in brief: as §1

[22] = target: Kdn(a2-3)Gal(b1-3)GalNAc
Method in brief: as §1

[23] = target: Kdn(a2-3)Gal(b1-3)GlcNAc
Method in brief: as §1

[24] = target: Kdn(a2-3)Gal(b1-4)Glc
Method in brief: as §1

[25] = target: Kdn(a2-3)Gal(b1-4)GlcNAc
Method in brief: as §1

[26] = target: Kdn(a2-3)Gal(b1-4)[Fuc(a1-3)]GlcNAc
Method in brief: as §1

[27] = target: Kdn(a2-6)Gal(b1-4)GlcNAc
Method in brief: as §1

[28] = target: Man(a1-2)Man(a1-2)Man(a1-3)Man
Method in brief: as §1

[29] = target: Man(a1-2)Man(a1-2)Man(a1-6)[Man(a1-3)]Man
Method in brief: as §1

[30] = target: Man(a1-2)Man(a1-3)Man
Method in brief: as §1

B1: Epa1-NP-mutant-E227G (Candida glabrata), Q6VBJ0 (protein)
chain: MILNPALFLNKCVCIYTTLILLLLTNGGYATSSNDISLASKDPTTFPLGCSPDITTPKKGLSMELYSYDFRKKGSYPCWDAAYLDPNYPRTGYKSHRLLAKVDGVTGNINFYYHATKGCTPQLGHLPASYNYPKPLTMTNFTMLLYGYFRPKVTGFHTFTISADDLLFVNFGAGNAFDCCRRDSSADHFGNYQAYAIWGSKTAKDELTVHLDAGVYYPIRLFYNNRGYDGALSFTFKTESNENTVSDFSEYFFSLDDTEEGCPGLISYDSSCASVKTSKIIGIDYHTETPNENLVPITKTIYHLGIPCTGTTTTPLCGSGFYDPLANKCVTINTSSTSSVTKTTSHTTSKEVSFHSSISSQKTLIPKSIPSPYGPIKSQSIPTEMETSSEISSSEYAFSDVISTPSHSPYTKKHSSLNSSSYTSTVIHSLTSYSISQGIFSTSLSEQNITSKSSTDKFSTATSMSNNITQSSIIISQFSTNNENYTTTSMHTSSDKISTETLNNSISTTTSILFSNSSTILKNNTTIISSDKDTHYHPVNPTIVCSTNKTEIICASITQPSISNSNNHWSSSVLKFNSTTVRSTLPSSAGSNETSINVPFSSSTESNTSTSSTSTSNSKMVRSTLPSSAGSNETSISVPFSSSTESNTSTSSTSTSNSKMVRSTLPSSAGSNETSINVPFSSSTESNTSTSSTSTSNSKTVRSTPFSSAGIIMTSLSQRNNKSASSYASSNSKCYNTADSCRKVHSTPSYLLTSSYTSEGVDYDCSLVSTKLKINDTNCVNNKHTTKSCLKTSVTTTIPTLEIKTARKSSSNTIGLHSYPTSSPNKSISSAPIIGYISSFKTIKTASPSYQTSDLTTITTITSLNNPGSTAVENTHESNDKSRKTSSNDISSKHSVIKETKDAVESSNKSHQTNTLKCSSIIIASSSHNSYESLGGTTLTLTLSKVYSPQNNDTLPFLEISEVNPSRTVLPESSKMMQYLTSTEERNKTARNTIATNIVSISTFHFEGEGNAIRMGYTQLLLMLIGIIVMNIGT
glycan array binding signal (z-score) [1]: 0.017 | glycan array binding signal (z-score) [2]: -0.04 | glycan array binding signal (z-score) [3]: -0.16 | glycan array binding signal (z-score) [4]: -0.019 | glycan array binding signal (z-score) [5]: -0.16 | glycan array binding signal (z-score) [6]: -0.182 | glycan array binding signal (z-score) [7]: -0.203 | glycan array binding signal (z-score) [8]: -0.223 | glycan array binding signal (z-score) [9]: -0.146 | glycan array binding signal (z-score) [10]: -0.244 | glycan array binding signal (z-score) [11]: -0.101 | glycan array binding signal (z-score) [12]: -0.133 | glycan array binding signal (z-score) [13]: -0.157 | glycan array binding signal (z-score) [14]: -0.168 | glycan array binding signal (z-score) [15]: -0.161 | glycan array binding signal (z-score) [16]: -0.177 | glycan array binding signal (z-score) [17]: -0.273 | glycan array binding signal (z-score) [18]: -0.137 | glycan array binding signal (z-score) [19]: -0.168 | glycan array binding signal (z-score) [20]: -0.071 | glycan array binding signal (z-score) [21]: -0.129 | glycan array binding signal (z-score) [22]: -0.163 | glycan array binding signal (z-score) [23]: -0.106 | glycan array binding signal (z-score) [24]: -0.2 | glycan array binding signal (z-score) [25]: -0.116 | glycan array binding signal (z-score) [26]: -0.097 | glycan array binding signal (z-score) [27]: -0.132 | glycan array binding signal (z-score) [28]: -0.219 | glycan array binding signal (z-score) [29]: 0.039 | glycan array binding signal (z-score) [30]: -0.146
